From the supplement of paper PMC11417369
± gives the standard deviation of the averaged measurements. The list shows a part of the results.

Test system: PfAP2-LT AP2 domain (GST-tagged)
Assay: gcPBM binding intensity (ln(normalized median fluorescence intensity)); higher = stronger DNA binding
Outline: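 GST-tagged P. falciparum DNA-binding domains, expressed in E. coli (about 25 μg on average), were applied for 1 h to an Agilent 4 × 180k array of primer-extended double-stranded 36-bp intergenic genomic probes plus negative controls. The binding buffer was 1× PBS with 1% milk, 0.2 mg/ml BSA, 0.5% salmon testes DNA and 0.03% Triton X-100. Bound protein was detected with Alexa488 anti-GST antibody and scanned at 488 nm. Binding intensity is the highest Masliner-normalised natural-log median intensity across replicate spots of either probe orientation.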

Row | Sequence | gcPBM binding intensity (ln)
1 | TATTTGTTTAAATTCACACACGTATATATATTTATA [CACACA_site5651] | 9.02 ± 0.38
2 | TTTTTTTTGATAAGTTGTACAATGATATATATCCCT [XGTACX_site3560] | 8.77 ± 0.51
3 | TATATTTTATATTGGTGTACAATTTTTTTTTTTTTT [XGTACX_site4291] | 8.53 ± 0.59
4 | ATAGTTTAATTTATATGTACATATAATATTGATTTG [XGTACX_site7520] | 8.83 ± 0.44
5 | ACCCTATCTGTAACTACACACCGCATATTGTTTACT [CACACA_site5661] | 9.43 ± 0.4
6 | ATAAATGACAGACACACACACAAAAAAAAAAAACAA [CACACA_site2626] | 9.84 ± 0.57
7 | AAATATTTATATGTTACACACTGTTTATAACTTTCT [CACACA_site6752] | 9.02 ± 0.41
8 | TTTTTATCTTTGCTGTGTACATAAATAAAAATAACT [XGTACX_site7625] | 8.47 ± 0.42
9 | CTTCTGTAATTATCACGTACATATAATAATTAAAAT [XGTACX_site8973] | 8.55 ± 0.33
10 | CCTTTTTTTTTTTTATGTACTAAAATAAAATTAGAA [XGTACX_site5956] | 8.04 ± 0.47
11 | TTCTAAAATTATATAGTGCAATTATATTAATTTTTC | 8.43 ± 0.59
12 | ATAACAACCCAATGTTGTACATTTAAATATAACGTA [XGTACX_site7114] | 8.83 ± 0.45
13 | TATATATATTTATGTACACACACACCGATAAATAAA [CACACA_site4404] | 9.43 ± 0.22
14 | TATAACATATGACACACACACATACATACACAAAAA [CACACA_site6935] | 9.98 ± 0.17
15 | GCCTCATCGTAGCAGTGTACGTTTTTTTTTTTTTTT [XGTACX_site8648] | 8.92 ± 0.41
16 | TTTTATACATAAATATGTACGTATATATAATGAATT [XGTACX_site1337] | 8.6 ± 0.36
17 | ACAATTTATATTATATGTACTTAAAAAGTTCGTAAA [XGTACX_site6421] | 8.47 ± 0.27
18 | TTGTGTTTGAAAAAATGTACATGTGTCTTACAACAA [XGTACX_site8371] | 8.57 ± 0.44
19 | TTATACAGATATTTAACACACATTTTATAAAGTGCC [CACACA_site4851] | 8.9 ± 0.4
20 | AAAAATAAAAAAAATACATGCAATGAAACATTTATT [TGCATGCA_site263] | 8.65 ± 0.38
21 | TTACGCGCTTATTACACACACATACAAATAAGGATT [CACACA_site3486] | 9.36 ± 0.3
22 | AACAAAATAAAAAAAACATGCAAGAATTCTTATATG [TGCATGCA_site714] | 8.82 ± 0.49
23 | ATTTGTATTGTATATGCACACATAGAACACTTTTTT [CACACA_site9373] | 9.18 ± 0.39

Row | Sequence | gcPBM binding intensity (ln)
24 | ATATATATAATATAATGTACATATATTTTATTTTTA [XGTACX_site3819] | 8.54 ± 0.4
25 | AAAGCACCCAAGAATACACACAAATATTATAAAAAA [CACACA_site111] | 9.21 ± 0.44
26 | ATATATTAATTTAATTGTACGAATAAAAAAAAAAAA [XGTACX_site223] | 8.4 ± 0.38
27 | TATATACATTTATGTACACACACATATATGTATATT [CACACA_site8971] | 9.37 ± 0.3
28 | ACGTATTAGATAAATACACACACAAGCATATATTTT [CACACA_site9135] | 9.41 ± 0.3
29 | TAATGTATTATATTTAGTACATATAAAAATAATTTT [XGTACX_site6886] | 8.4 ± 0.4
30 | AGATTCAAAAATAAAACATGCAAAAATAAAACGTGC [TGCATGCA_site501] | 9.03 ± 0.45
31 | TAATAAATGGCTAGTTGTACAGAAATATAAATATTA [XGTACX_site4579] | 8.62 ± 0.46
32 | ATATATATTGTACTAGTGCATATATATACATATATT | 8.98 ± 0.3
33 | ATAAATAAAAACACAAAACAAAACAAAACAAAACAA [CACACA_negctrl_site1257] | 8.82 ± 0.4
34 | TTTCATCTATATGAAACACACAAAGGAAAAAAAATT [CACACA_site7869] | 8.71 ± 0.35
35 | TAATACCATTGTCATGCATGCACATTATTACTCTAA [TGCATGCA_site160] | 8.99 ± 0.35
36 | TCGTAATTTTTTTTTATATATTAGGAATTTATAAAA [XGTACX_negctrl_site409] | 8.04 ± 0.42
37 | ATATTATATTTCTTTTGTACATATTATATAATATAT [XGTACX_site7198] | 9.05 ± 0.36
38 | TTTTTTTTGTGTATTTGTACATAATATATATATATA [XGTACX_site7092] | 8.88 ± 0.49
39 | AAAATTGTTATTTTATGTACTTATATTTATTTATTT [XGTACX_site3478] | 8.77 ± 0.43
40 | AAAAGGTATGTTATACATAGATATGCACATATATGT [TGCATGCA_negctrl_site96] | 8.94 ± 0.45
41 | GTAGGATTTTCTTTTGTGCGCAATATAAAAAGAAAA [GTGCAC_site9514] | 8.66 ± 0.43
42 | ATTAATATAAAAAGGTAAATGGATGTAATATATATA [XGTACX_negctrl_site2] | 8.76 ± 0.45
43 | TGAACACGCACAAATACACACAAAAAAAATAAATAA [CACACA_site6257] | 9.31 ± 0.49
44 | CCATTAAGACACATTGCACACGTGCACCCATAGAAA [CACACA_site4388] | 9.13 ± 0.35
45 | AAAAAAAAATTAAAAACACACATATAAATAAATATA [CACACA_site6845] | 8.76 ± 0.54
46 | AACAAAATAGGGAACACACACATGTCAATATATAAA [CACACA_site2596] | 9.43 ± 0.5

Row | Sequence | gcPBM binding intensity (ln)
47 | AAAAAAAATTAATAGGGTACATGAAAAGTGGAATAT [XGTACX_site618] | 9.03 ± 0.4
48 | CACATACACATACAAACACACATTAGATATAAATAT [CACACA_site6854] | 9.27 ± 0.47
49 | ATAGAAGAAATATGCACACATACATTGAAATGTTTT [CACACA_site321] | 8.99 ± 0.36
50 | TTTTTATTTATTAATACACACACACCCACCCACAAA [CACACA_site7965] | 9.805 ± 0.064
51 | AAAGAAAAAAATAATTGTACATTTATATTTAATTTA [XGTACX_site8003] | 8.27 ± 0.47
52 | TTTTTTTTTAAATAATGTACTTTTCATTATTTAGAT [XGTACX_site1706] | 8.54 ± 0.43
53 | TAATTTTATATATGCACACAAAATATGTTCATATAA [CACACA_site4076] | 8.72 ± 0.39
54 | TGAAAAATGTTGATGTGTACTTATATAGTGTGTTAA [XGTACX_site2100] | 8.81 ± 0.45
55 | TTTAACATAAATTAAACACACAATATAATACATTAA [CACACA_site1237] | 8.76 ± 0.4
56 | CATTTTATCAAAAGTGGTACAACCCTTTCAAAAAAT [XGTACX_site341] | 8.38 ± 0.39
57 | TTTTTTTTTTTTTTTTGTACGTAATATATGATTAAT [XGTACX_site6876] | 8.54 ± 0.35
58 | AAATTACTTTCACAGTGTACTTGGAAAAAAAAAAGA [XGTACX_site1046] | 8.57 ± 0.4
59 | AGATATAATAAATATACACACATATATATATATATA [CACACA_site962] | 9.62 ± 0.26
60 | ATATATATTTTTATTTGTACATAATTTTTTTTGTGA [XGTACX_site6378] | 8.66 ± 0.5
61 | ATAAAATTGTTTAAATGTACATATGAACAGTCAGTA [XGTACX_site5140] | 8.78 ± 0.51
62 | TTTTTTTTTTTTTGCACACACATATATAGATATATA [CACACA_site7784] | 9.41 ± 0.34
63 | ATATATGTAATAAATAGTACACACACACATATATAT [XGTACX_site2817] | 9.94 ± 0.19
64 | ATATATATTTAAATGTGTACTCATTTATTTTATGTC [XGTACX_site4984] | 9 ± 0.37
65 | TATATATATAAACACACACACACATATATATATATT [CACACA_site8814] | 9.84 ± 0.014
66 | ATAGTATAACAGCAATGTACACATATTTGTGTATAT [XGTACX_site7899] | 9.08 ± 0.37
67 | TGATATTTATAATAAATATTATAATAAAATCAAACA [XGTACX_negctrl_site219] | 8.41 ± 0.34
68 | TTTTTTTTTTTTGTCACACATATATTTGTATTTATA [CACACA_site5234] | 8.8 ± 0.49
69 | TGTAGTCTGGAGAAACGTACATAGTATCTGGTAACC [XGTACX_site4939] | 8.94 ± 0.31

Row | Sequence | gcPBM binding intensity (ln)
70 | TATATATATATATATACACACATATATATATTTATA [CACACA_site627] | 9.66 ± 0.31
71 | ATAACATTCATATTCACACAAAAATATACTACATAG [CACACA_site4529] | 8.81 ± 0.42
72 | TATTTATTTTTTTGCACACATATTTTACATTTTAAT [CACACA_site3181] | 9.54 ± 0.47
73 | ATTGAAAATTGTTGCACACATAATAATTAAATATAT [CACACA_site1857] | 8.93 ± 0.4
74 | ATATAAAAAGTGTATCGTACATTTACTTATTTTATA [XGTACX_site6249] | 8.65 ± 0.42
75 | ATAAAAAAAGGACACACACACATATATATATATATA [CACACA_site5662] | 10.46 ± 0.05
76 | AAAAAAATCACATAAAATACTTTATTTTATATTATA [GTGCAC_negctrl_site372] | 8.24 ± 0.47
77 | TATATTTCTTATTTCTTATTTTGTCATCACCTTTTT [CACACA_negctrl_site1115] | 8.82 ± 0.54
78 | TATAAATATGTTCTTACACACACGAATATAAATATG [CACACA_site7537] | 9.1 ± 0.33
79 | TTACATAATATATGTACACACGCAAATACTTATAAT [CACACA_site7995] | 9.03 ± 0.44
80 | TACTTTTTTTTTTTTTTTTTTTTTTTTTCCCTTTTT [CACACA_negctrl_site761] | 8.57 ± 0.65
81 | ATATATATATATATATGTACATATGTTAATCTGCAT [XGTACX_site1068] | 9.78 ± 0.47
82 | CTTTTTTTCCATTAAGCATGCACATTCATATTTACT [TGCATGCA_site170] | 9.07 ± 0.45
83 | TATATATATATAGGTTGTACATTTTGATGTTTACGT [XGTACX_site5503] | 9.55 ± 0.5
84 | GTTTATTTATTATAATGTACATTAGTCTGAGGAGTT [XGTACX_site4035] | 8.91 ± 0.45
85 | TTTTATTTATATATAGTGCATATTATTATAAAACAA | 8.29 ± 0.47
86 | TTTATTTTTTATATATCACTTAAAAAAAAAAAAAAA [CACACA_negctrl_site249] | 7.86 ± 0.3
87 | GAATATAAAAGGAACGGTACAGAAAAAAAAAAAAAA [XGTACX_site3917] | 8.87 ± 0.57
88 | ATTTATATTTTATATACACACATGAACTTATATGGA [CACACA_site3167] | 8.94 ± 0.44
89 | AATATAGTCTCACATACACACATATATATTTATATA [CACACA_site2503] | 8.99 ± 0.31
